Among all 310,000 compounds or so, about 14,000 (4.5%) showed an effect of 50% or more. Effects have a minus sign here. Some of the results follow.
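Further: peak tail current of the secondary pulse compared with the same well before compound.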

The target of the assay is human ether-à-go-go-related gene (hERG) potassium channel (human, UniProt Q12809). Description: primary screen, population patch clamp on CHO cells stably expressing hERG.
human ether-à-go-go-related gene (hERG) potassium channel, sequence (Q12809 whole entry, looked up): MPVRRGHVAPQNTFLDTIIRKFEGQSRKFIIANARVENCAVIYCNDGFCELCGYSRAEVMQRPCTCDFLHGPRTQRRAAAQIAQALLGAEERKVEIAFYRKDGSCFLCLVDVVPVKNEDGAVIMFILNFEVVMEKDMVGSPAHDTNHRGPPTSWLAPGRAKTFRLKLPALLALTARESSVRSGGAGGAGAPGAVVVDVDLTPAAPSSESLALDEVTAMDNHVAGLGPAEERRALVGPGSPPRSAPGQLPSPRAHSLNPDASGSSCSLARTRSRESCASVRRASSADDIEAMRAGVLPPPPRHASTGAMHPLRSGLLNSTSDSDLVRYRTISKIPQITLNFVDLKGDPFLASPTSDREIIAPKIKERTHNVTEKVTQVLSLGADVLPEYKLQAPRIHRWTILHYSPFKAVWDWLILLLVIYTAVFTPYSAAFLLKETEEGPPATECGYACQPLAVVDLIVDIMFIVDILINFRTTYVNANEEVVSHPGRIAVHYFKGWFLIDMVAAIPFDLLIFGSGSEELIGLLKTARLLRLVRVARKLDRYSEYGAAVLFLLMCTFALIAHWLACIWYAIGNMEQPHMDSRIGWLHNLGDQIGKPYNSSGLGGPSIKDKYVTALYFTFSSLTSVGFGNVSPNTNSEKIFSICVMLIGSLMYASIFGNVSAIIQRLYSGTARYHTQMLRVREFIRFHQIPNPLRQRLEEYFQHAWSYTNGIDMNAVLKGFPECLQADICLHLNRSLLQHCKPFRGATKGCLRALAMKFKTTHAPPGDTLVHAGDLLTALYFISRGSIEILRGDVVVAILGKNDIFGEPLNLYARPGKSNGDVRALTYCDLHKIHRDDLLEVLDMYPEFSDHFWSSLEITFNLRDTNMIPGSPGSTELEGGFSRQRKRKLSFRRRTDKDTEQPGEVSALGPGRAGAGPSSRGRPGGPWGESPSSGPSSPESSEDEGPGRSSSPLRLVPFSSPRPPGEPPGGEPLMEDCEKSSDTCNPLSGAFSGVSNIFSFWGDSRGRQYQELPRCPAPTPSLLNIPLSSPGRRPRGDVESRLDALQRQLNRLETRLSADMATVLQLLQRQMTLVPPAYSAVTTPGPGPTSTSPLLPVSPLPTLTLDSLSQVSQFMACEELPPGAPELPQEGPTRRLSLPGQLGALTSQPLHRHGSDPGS
With `CCc1nc(SCC(=O)O)c(C#N)c2c1CCCC2`, the “hERG current change (%, negative = inhibition) at 10uM” value is reported as 15.3%.

Take `CCOc1ccc(CC(=O)NCc2ccc3c(c2)cc(C)n3C)cc1`: the “hERG current change (%, negative = inhibition) at 10uM” value is recorded as 4.51%.

As to `Cc1ccc(C)c(N(C(=O)c2csnn2)C(C(=O)NC2CCCC2)c2ccncc2)c1` (stereo not shown), the “hERG current change (%, negative = inhibition) at 10uM” value was 16.7%.

For `CCCCCOc1ccc(N2C(=O)CC(N(O)c3ccccc3)C2=O)cc1` (stereo not shown), the “hERG current change (%, negative = inhibition) at 10uM” value is 12.3%.

In the case of `COc1ccc(OC)c(C(=O)c2coc3ccc(OC)cc23)c1`, the “hERG current change (%, negative = inhibition) at 10uM” value is reported as -11.5%. As for `O=c1c([N+](=O)[O-])cc(C(F)(F)F)cn1Cc1c(Cl)cccc1Cl`, the “hERG current change (%, negative = inhibition) at 10uM” value was found to be 13.3%. For `O=C(O)CC12CC3CC(C1)CC(n1ncc(NCc4ccc(F)cc4)c(Cl)c1=O)(C3)C2`, the “hERG current change (%, negative = inhibition) at 10uM” value is on record as -20.9%. Then `CCOC(=O)c1c(C)n(CC(O)c2ccccc2)c2ccc(O)cc12` (stereo not shown), with 11.7%; and `Cc1ccc(OCC(=O)OC2CCS(=O)(=O)C2)cc1` (stereo not shown), with 0.661%; and `O=C(Nc1nc(-c2ccc(S(=O)(=O)N3CCCC3)cc2)cs1)c1cccs1`, with 6.79%. Then `COc1ccc(NC(=O)c2ccc(COc3ccccc3)o2)cc1`, with 3.14%. The result for `CCOC(=O)C(=NC1CCS(=O)(=O)C1)NNc1cc(Cl)ccc1Cl` (stereo not shown) reads -17.1%; that for `CCn1c(C)nc2cc(C(=O)NNC(=O)Nc3cccc(Cl)c3)ccc21`, 9.76%. For `Cn1c(NC2CCCCC2)cc(=O)n(C)c1=O`, the “hERG current change (%, negative = inhibition) at 10uM” value was determined as 6.13%. Then `CC(=O)c1c(C)[nH]c(C(=O)Nc2cccc(C#N)c2)c1C`, with -5.09%; and `CCCN1C2=NCCN2c2ccccc21.Cl`, with -9.75%; and `CCc1noc(C)c1C(=O)OCC(=O)Nc1ncc(Cl)cc1Cl`, with 4.64%.

On to `CCC(=O)N1CCc2cc(Br)cc(S(=O)(=O)NCC3CCCN3CC)c21` (stereo not shown), for which the “hERG current change (%, negative = inhibition) at 10uM” value is 8.65%.

As to `COc1ccc(N2CCC(CNC(=S)Nc3ccc(C)cc3C)C2)cc1` (stereo not shown), the “hERG current change (%, negative = inhibition) at 10uM” value was -8.02%. The result for `Cn1c(COc2ccccc2)nnc1SCC(=O)Nc1ccc(S(N)(=O)=O)cc1` reads -12.8%; that for `CSC(=NC#N)N1CCN(c2ccc(Cl)cc2)CC1`, -38.3%. Then `CC(=O)Nc1ccc2c(c1)n(C)c(=O)n2C`, with 11.3%; and `O=C(COC(=O)c1cc(-c2ccccc2)nc2ccccc12)NCC1CCCO1` (stereo not shown), with -22.4%; and `COc1ccc(CN2CC(C(=O)NCCCN3CCOCC3)CC2=O)cc1` (stereo not shown), with -5.39%. Then `CC(=O)Nc1nc2ccccc2n1Cc1ccc(C)cc1`, with -1.03%. For `CCC1(c2ccccc2)NC(=O)N(C)C1=O` (stereo not shown), the “hERG current change (%, negative = inhibition) at 10uM” value was -29.6%. Take `CCC(c1nnnn1Cc1ccco1)N(Cc1ccccc1OC)Cc1cc2cc(C)ccc2[nH]c1=O` (stereo not shown): the “hERG current change (%, negative = inhibition) at 10uM” value is reported as -2.41%.

Consider `CCOC(=O)c1c(C)c(C(=O)Nc2ccccc2)c(C)n1CC`, for which the “hERG current change (%, negative = inhibition) at 10uM” value turned out to be 2.32%. The result for `CN(C(=O)c1ccccn1)c1nnc(-c2cnccn2)s1` reads -22.5%; that for `COc1ccc(N2CCN(C(=O)COC(=O)CCc3ccccc3)CC2)cc1`, -0.829%. Then `Cc1cc(=O)[nH]c(SCC(=O)Nc2nonc2C)n1`, with 17.8%.

As for `C/C(=N\NC(=S)Nc1ccc(C)cc1)c1cc2ccccc2o1.CN(C)C=O`, the “hERG current change (%, negative = inhibition) at 10uM” value is given as 13%.

As for `CCN(CCNC(=O)C1CCN(S(=O)(=O)c2c(C)noc2C)CC1)c1ccccc1`, the “hERG current change (%, negative = inhibition) at 10uM” value is on record as -1.06%. Then `CCCCn1c(N)c(N(CC(C)C)C(=O)CSCc2cccc(C)c2)c(=O)[nH]c1=O`, with 12.7%; and `N#Cc1cc(N2CCOCC2)nc2ccccc12`, with 1.25%; and `COc1ccc(CCNC(=O)C2CC(=O)N(c3ccc(C)cc3)C2)cc1` (stereo not shown), with 12.7%.

For `CCN(CC)CCN(C(=O)CCOc1ccccc1)c1nc2c(F)cc(F)cc2s1.Cl`, the “hERG current change (%, negative = inhibition) at 10uM” value was -8.13%. Then `COC(=O)c1ccc(/C=N/OCC(=O)NC2CCCC(C)C2C)cc1` (stereo not shown), with -5.19%; and `CCCC1C(=O)Nc2ccccc2N1C(=O)c1ccc(C(C)(C)C)cc1` (stereo not shown), with 19.3%. Consider `CN(C)c1ccc(CNC(=O)C2CCN(S(=O)(=O)c3ccc4c(c3)oc(=O)n4C)CC2)cc1`, for which the “hERG current change (%, negative = inhibition) at 10uM” value was 9.88%.

Consider `Cc1ccc(S(=O)(=O)Nc2cccc(C(=O)N3CCCC3)c2)cc1F`, for which the “hERG current change (%, negative = inhibition) at 10uM” value is reported as -0.933%. The result for `O=C(O)c1cn(Cc2ccccc2)nc1-c1ccccc1` reads 19.7%; that for `Cc1ccc2[nH]c(O)c(N=Nc3ccccc3C)c2c1`, 15.1%. The result for `Cc1occc1C(=O)N/N=C/c1cccnc1` reads 1.61%. For `Cc1cccc2cc(COC(=O)c3cccnc3)c(=O)[nH]c12`, the “hERG current change (%, negative = inhibition) at 10uM” value is recorded as -2.37%.

Turning to `O=C(CCn1ccc2ccccc21)Nc1ccc(N2CCOCC2)cc1`, the “hERG current change (%, negative = inhibition) at 10uM” value is 3.42%.

Source of the values: publication PMC4336329 (PLoS ONE, 2015).
